From PMC5611444
Results are given in words; binding and its absence hold for the method and conditions named. In cells and extracts the contact can be indirect. Some results given as binding are weak or reduced against the parent protein; the word gives no strength. For some of these results: Tags and fused reporters may be left off the sequences shown.

Tests used:
[1] = biological target: T1, calnexin, endogenous rat (rat (endogenous in PC12, hippocampal neurons, brain)) (UniProt P35565); assay: proximity ligation; Duolink PLA on coronal rat brain sections 2 h after unilateral HFS of the perforant path; anti-Arc with anti-calnexin C-terminus; dentate gyrus, ipsilateral against contralateral
T1 sequence: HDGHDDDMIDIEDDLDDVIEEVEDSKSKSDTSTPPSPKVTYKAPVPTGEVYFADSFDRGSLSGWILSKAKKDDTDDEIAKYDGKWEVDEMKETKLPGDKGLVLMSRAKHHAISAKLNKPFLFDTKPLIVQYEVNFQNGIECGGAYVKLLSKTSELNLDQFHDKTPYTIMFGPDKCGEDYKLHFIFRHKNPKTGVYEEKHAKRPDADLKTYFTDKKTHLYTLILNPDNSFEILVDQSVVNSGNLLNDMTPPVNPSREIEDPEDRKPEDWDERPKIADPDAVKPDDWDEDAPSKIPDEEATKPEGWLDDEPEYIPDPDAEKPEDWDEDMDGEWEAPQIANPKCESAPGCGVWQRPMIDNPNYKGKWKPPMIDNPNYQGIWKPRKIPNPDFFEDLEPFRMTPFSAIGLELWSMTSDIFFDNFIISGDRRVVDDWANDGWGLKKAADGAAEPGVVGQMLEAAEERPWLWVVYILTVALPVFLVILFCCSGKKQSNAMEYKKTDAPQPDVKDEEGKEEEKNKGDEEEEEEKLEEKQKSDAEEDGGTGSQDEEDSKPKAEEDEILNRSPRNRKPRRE

[2] = biological target: T1, calnexin, endogenous rat (rat (endogenous in PC12, hippocampal neurons, brain)); assay: proximity ligation; Duolink PLA in fixed rat primary hippocampal neurons, naive or treated with BDNF for 4 h; anti-Arc with anti-calnexin C-terminus (two antibody combinations) or anti-calnexin N-terminus
[3] = biological target: T2, GST-tagged full-length rat Arc (activity-regulated cytoskeleton-associated protein) with C-terminal histidine tag (rat) (UniProt Q63053); assay: pull-down; GST-Arc pull-down from HEK293, SH-SY5Y or PC12 lysates; western blot probed for calnexin; only the target purified
T2 sequence: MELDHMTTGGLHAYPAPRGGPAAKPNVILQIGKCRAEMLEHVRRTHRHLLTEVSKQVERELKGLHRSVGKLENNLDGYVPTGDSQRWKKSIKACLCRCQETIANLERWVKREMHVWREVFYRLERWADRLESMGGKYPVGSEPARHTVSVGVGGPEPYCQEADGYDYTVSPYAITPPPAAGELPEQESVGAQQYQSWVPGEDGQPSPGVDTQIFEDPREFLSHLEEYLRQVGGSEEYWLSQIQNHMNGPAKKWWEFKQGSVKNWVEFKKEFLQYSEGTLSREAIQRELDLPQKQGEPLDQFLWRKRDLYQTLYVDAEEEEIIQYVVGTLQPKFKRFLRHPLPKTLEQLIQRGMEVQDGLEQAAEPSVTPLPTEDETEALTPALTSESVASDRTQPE

[4] = biological target: T3, calnexin, endogenous human (human (endogenous in HEK293 and SH-SY5Y)) (UniProt P27824); assay: co-IP; HEK293 transfected with YFP-Arc constructs; calnexin precipitated with goat anti-calnexin C-20 on Protein G Sepharose, 500 ug total protein, overnight at 4°C; western blot with anti-GFP
T3 sequence: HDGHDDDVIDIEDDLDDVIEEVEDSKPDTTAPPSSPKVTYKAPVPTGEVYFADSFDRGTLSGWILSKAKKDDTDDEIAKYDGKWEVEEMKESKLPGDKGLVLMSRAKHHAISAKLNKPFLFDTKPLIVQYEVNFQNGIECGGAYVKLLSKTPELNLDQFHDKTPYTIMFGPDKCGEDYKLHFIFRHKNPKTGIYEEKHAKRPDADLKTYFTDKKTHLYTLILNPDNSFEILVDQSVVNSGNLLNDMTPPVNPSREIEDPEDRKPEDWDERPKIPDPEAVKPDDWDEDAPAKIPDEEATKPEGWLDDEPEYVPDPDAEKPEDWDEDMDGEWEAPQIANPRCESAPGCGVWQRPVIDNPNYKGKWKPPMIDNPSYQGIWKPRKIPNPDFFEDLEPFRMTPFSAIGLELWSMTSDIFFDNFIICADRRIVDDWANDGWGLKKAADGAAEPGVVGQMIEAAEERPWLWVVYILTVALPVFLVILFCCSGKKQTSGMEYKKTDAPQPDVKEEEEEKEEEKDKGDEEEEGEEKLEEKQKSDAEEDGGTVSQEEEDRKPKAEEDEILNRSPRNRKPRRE

B1: Arc, endogenous rat (protein, UniProt Q63053 1-396)
chain: T2 sequence
[1]
  binding: binds
[2]
  binding: binds

B2: calnexin, endogenous human (protein, UniProt P27824 21-592)
chain: T3 sequence
[3]
  binding: binds

B3: calnexin, endogenous rat (protein, UniProt P35565 21-591)
chain: T1 sequence
[3]
  binding: binds

B4: YFP-Arc full length (1-396) (protein, UniProt Q63053 1-396)
chain: T2 sequence
[4]
  binding: binds

B5: YFP-Arc (101-240) (domain or fragment, UniProt Q63053 101-240)
chain: TIANLERWVKREMHVWREVFYRLERWADRLESMGGKYPVGSEPARHTVSVGVGGPEPYCQEADGYDYTVSPYAITPPPAAGELPEQESVGAQQYQSWVPGEDGQPSPGVDTQIFEDPREFLSHLEEYLRQVGGSEEYWLS
[4]
  binding: binds

B6: YFP-Arc (125-396) (domain or fragment, UniProt Q63053 125-396)
chain: RWADRLESMGGKYPVGSEPARHTVSVGVGGPEPYCQEADGYDYTVSPYAITPPPAAGELPEQESVGAQQYQSWVPGEDGQPSPGVDTQIFEDPREFLSHLEEYLRQVGGSEEYWLSQIQNHMNGPAKKWWEFKQGSVKNWVEFKKEFLQYSEGTLSREAIQRELDLPQKQGEPLDQFLWRKRDLYQTLYVDAEEEEIIQYVVGTLQPKFKRFLRHPLPKTLEQLIQRGMEVQDGLEQAAEPSVTPLPTEDETEALTPALTSESVASDRTQPE
[4]
  binding: binds

B7: YFP-Arc (150-396) (domain or fragment, UniProt Q63053 150-396)
chain: VGVGGPEPYCQEADGYDYTVSPYAITPPPAAGELPEQESVGAQQYQSWVPGEDGQPSPGVDTQIFEDPREFLSHLEEYLRQVGGSEEYWLSQIQNHMNGPAKKWWEFKQGSVKNWVEFKKEFLQYSEGTLSREAIQRELDLPQKQGEPLDQFLWRKRDLYQTLYVDAEEEEIIQYVVGTLQPKFKRFLRHPLPKTLEQLIQRGMEVQDGLEQAAEPSVTPLPTEDETEALTPALTSESVASDRTQPE
[4]
  binding: binds

B8: YFP-Arc (175-396) (domain or fragment, UniProt Q63053 175-396)
chain: TPPPAAGELPEQESVGAQQYQSWVPGEDGQPSPGVDTQIFEDPREFLSHLEEYLRQVGGSEEYWLSQIQNHMNGPAKKWWEFKQGSVKNWVEFKKEFLQYSEGTLSREAIQRELDLPQKQGEPLDQFLWRKRDLYQTLYVDAEEEEIIQYVVGTLQPKFKRFLRHPLPKTLEQLIQRGMEVQDGLEQAAEPSVTPLPTEDETEALTPALTSESVASDRTQPE
[4]
  binding: binds

B9: YFP-Arc (200-396) (domain or fragment, UniProt Q63053 200-396)
chain: GEDGQPSPGVDTQIFEDPREFLSHLEEYLRQVGGSEEYWLSQIQNHMNGPAKKWWEFKQGSVKNWVEFKKEFLQYSEGTLSREAIQRELDLPQKQGEPLDQFLWRKRDLYQTLYVDAEEEEIIQYVVGTLQPKFKRFLRHPLPKTLEQLIQRGMEVQDGLEQAAEPSVTPLPTEDETEALTPALTSESVASDRTQPE
[4]
  binding: binds

B10: YFP-Arc (1-100) (domain or fragment, UniProt Q63053 1-100)
chain: MELDHMTTGGLHAYPAPRGGPAAKPNVILQIGKCRAEMLEHVRRTHRHLLTEVSKQVERELKGLHRSVGKLENNLDGYVPTGDSQRWKKSIKACLCRCQE
[4]
  binding: no binding

B11: YFP-Arc (241-396) (domain or fragment, UniProt Q63053 241-396)
chain: QIQNHMNGPAKKWWEFKQGSVKNWVEFKKEFLQYSEGTLSREAIQRELDLPQKQGEPLDQFLWRKRDLYQTLYVDAEEEEIIQYVVGTLQPKFKRFLRHPLPKTLEQLIQRGMEVQDGLEQAAEPSVTPLPTEDETEALTPALTSESVASDRTQPE
[4]
  binding: no binding

B12: YFP-Arc (225-396) (domain or fragment, UniProt Q63053 225-396)
chain: EEYLRQVGGSEEYWLSQIQNHMNGPAKKWWEFKQGSVKNWVEFKKEFLQYSEGTLSREAIQRELDLPQKQGEPLDQFLWRKRDLYQTLYVDAEEEEIIQYVVGTLQPKFKRFLRHPLPKTLEQLIQRGMEVQDGLEQAAEPSVTPLPTEDETEALTPALTSESVASDRTQPE
[4]
  binding: no binding
